The record followed here is publication PMC12040169 (PLOS Biology, 2025).

The list shows a part of the results.

This experiment concerns T1, C. trachomatis L2/434/Bu expressing GFP (CTL2-GFP).
T1 construct: L2/434/Bu GFP intracellular growth in HeLa cells
Set-up: species or system HeLa; C. trachomatis total inclusion area by high-content imaging, normalised to DMSO. To be noted: total inclusion area; 28.5 h, 10 µM; inhibitor. Put shortly: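 Post-fluorescence-read fixation, DNA staining with Hoechst and high-content imaging; GFP inclusion area and number per well, and nuclei counts, used as proxies for bacterial growth and host viability.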
Consider `COCc1cccc(-c2ncc(OCc3ccccn3)nc2N)c1` [CBK145108], for which the “% of control remaining” value was found to be 102.36. Turning to `CC(=O)N1CCc2sccc2C1c1ccc(NCc2ccc(F)cc2)cc1` (stereo not shown) [CBK286442], the “% of control remaining” value is on record as 106.194. To `COC(=O)N1CC2(CCCCC2NCc2c[nH]c(C)n2)c2ccccc21` (stereo not shown) [CBK083547T] belongs 58.305; to `COCCNC(=O)CN(C)c1nc(-c2ccncc2)nc2ccccc12` [CBK305611], 90.3359; to `COc1ccc(C(NC(=O)C2CCN(CCn3cnc4c3c(=O)n(C)c(=O)n4C)CC2)c2ccco2)cc1` (stereo not shown) [CBK148308], 128.363. Consider `CCN1CC2(CCN(CCOc3ccccc3)CC2)c2ccccc21` [CBK122705], for which the “% of control remaining” value amounted to 94.4956. For the compound `CC(C)COc1ccc(-c2nonc2NC(=O)c2cccs2)cc1` [CBK299822], the “% of control remaining” value is 62.9161. To `O=C(O)c1ccc(NS(=O)(=O)c2ccc3c(c2)C(=O)c2ccccc2C3=O)cc1` [CBK299828] belongs 61.3082; to `O=C1NC2(CCCC2)N=C1c1ccc(Cl)cc1Cl` [CBK288042], 97.031. Turning to `O=C(Nc1ncnc2nc[nH]c12)NC1CCCCC1` [CBK022860], the “% of control remaining” value was 33.3313. Turning to `CCOC(=O)c1cn(CC#N)c2cc(F)c(F)cc2c1=O` [CBK304211], the “% of control remaining” value came out at 85.9456. To `CC(C)Cn1cnc(S(=O)(=O)N2CCN(CC(=O)NC3CC3)CC2)c1` [CBK304223] belongs 48.8815; to `Cc1[nH]c2c(C(=O)Nc3cccc(CN4CCOC4=O)c3)cccc2c1C` [CBK298338], 92.5424.

Turning to `CCc1ccc(-c2noc(CSc3n[nH]c(=O)n3CCCOC)n2)cc1` [CBK295656], the “% of control remaining” value was found to be 70.1367.

As to `CCC(=O)N(C)C(CO)c1cc(OC)ccc1Br` (stereo not shown) [CBK304156], the “% of control remaining” value was 77.4307. With `CC(CC(=O)O)CC(=O)N1CCC2(CC1)NC(=O)Cc1ccccc12` (stereo not shown) [CBK047281], the “% of control remaining” value came to 92.7864. The value for `Cn1c(CN2CCCC2)nc2cc(NC(=O)C3CCCCC3)ccc21` [CBK307418] was 72.7243. To `Cc1cc2c(s1)c1cnn(CC(=O)NC3CC3)c(=O)c1n2C` [CBK284246] belongs 81.9533; to `Cc1cnc2[nH]c(C3CCN(C(=O)c4cnn(C)c4C)CC3)cc2c1` [CBK284684], 88.2325; to `COc1cc(NC(=O)CSc2nncn2C)c(OC)cc1Cl` [CBK270307], 95.6124.

Regarding `O=C(c1cc2c(F)cccc2[nH]1)N1CCCCC1CCN1CCCC1` (stereo not shown) [CBK281612], the “% of control remaining” value was 87.3836. Take `CS(=O)(=O)N1CC2(CCN(Cc3ccccc3)CC2)c2ccccc21` [CBK084003]: the “% of control remaining” value is 71.9966. To `COc1ccc(CCN2CCCN(c3nccc(OCc4ccc(Cl)c(Cl)c4)n3)CC2)cc1OC` [CBK083965] belongs 90.6205; to `O=C(Oc1ccc(/C=N/NC(=O)C2COc3ccccc3O2)cc1)c1cccnc1` (stereo not shown) [CBK262811], 97.3216; to `COc1ccccc1-c1ccnc(N[C@H]2CO[C@H]3[C@@H]2OC[C@@H]3NC(=O)C2CCCCC2)n1` [CBK289529], 108.366.

As to `C[C@H](c1ccccc1)n1c(=O)[nH]c2ncc(-c3cccc4ccccc34)nc21` [CBK064241], the “% of control remaining” value came out at 74.3643. Consider `c1ccc(C2=Nn3c(Cn4nnc5ccccc54)nnc3SC2)cc1` [CBK268232], for which the “% of control remaining” value was 105.293. To `OC1(c2cccnc2)CCCC2CN(Cc3cc(F)ccc3F)CC21` (stereo not shown) [CBK284513] belongs 78.4196; to `CS(=O)(=O)c1ccc2nc(NC(=O)Cc3ccccc3)sc2c1` [CBK287339], 107.038. To `Oc1ccc(-n2ncc(-c3ccc(Cl)cc3)n2)cc1` [CBK112794] belongs 77.8871.

Regarding `Cc1nc2ccccc2[nH]/c1=N/O` [CBK018103], the “% of control remaining” value turned out to be 67.023. The value for `Cc1ccc(S(=O)(=O)Nc2ccnc(-c3ccc(CN4C(=O)CSC4=O)cc3)n2)cc1` [CBK067925] was 127.7; that for `CCc1ccc(OCC(=O)Nc2ccc3oc(-c4ccc(F)cc4Cl)nc3c2)cc1` [CBK265010] was 138.823.

Turning to `CCN(CC)C(=O)CN1C(=O)C2(Nc3ccccc3C(=O)N2c2ccc(F)cc2)c2ccccc21` (stereo not shown) [CBK103751], the “% of control remaining” value is on record as 85.7755. Take `CC(=O)NC[C@H]1CN(c2ccc(-c3nnc(C(C)O)s3)c(F)c2)C(=O)O1` (stereo partly shown) [CBK017968]: the “% of control remaining” value amounted to 0.07773. The value for `COc1ccc(-c2noc(CSc3nnc(-c4ccncc4)n3C)n2)cc1` [CBK268245] was 128.916; that for `C[C@H](c1ccccc1)n1c(=O)[nH]c2ncc(-c3ccco3)nc21` [CBK064415] was 92.8671; that for `O=C(O)CCNC(=O)c1ccc(NS(=O)(=O)c2ccc(C3CCCCC3)cc2)cc1` [CBK296991] was 82.0975. To `CN(C)CCP(=O)(c1ccccc1)c1ccccc1` [CBK026596] belongs 87.66. Turning to `Nc1cccc(-c2cc(Nc3cccc(OCc4ccccc4)c3)ncn2)c1` [CBK090915], the “% of control remaining” value stood at 103.091.

Consider `Cn1nc(C(C)(C)C)cc1C(=O)N1CCC(N2C(=O)OCC2(C)C)CC1` [CBK044234], for which the “% of control remaining” value is reported as 82.6309. `O=C(CN(c1ccccc1)S(=O)(=O)c1ccccc1[N+](=O)[O-])Nc1ccc(C(F)(F)F)cc1` [CBK267137]: the “% of control remaining” value stood at 70.5942. The value for `Cc1ccc(CNC(=O)Cn2cc(-c3ccc(CN4CCC(C)CC4)cc3)nn2)cc1` [CBK164706] was 46.7777; that for `COc1cc(C2NC(=O)N(CCc3ccccc3)C(c3ccccc3)=C2C(C)=O)ccc1O` (stereo not shown) [CBK269024] was 88.5257. To `Cc1ccc(C)c(NS(=O)(=O)c2cc(C(=O)NCc3ccccn3)ccc2C)c1` [CBK269110] belongs 87.3938; to `Cc1cc(Br)c(NC(=O)COc2ccc(/C=C(\C#N)C(N)=S)cc2)cc1C` [CBK269014], 92.7624.

With `NNC(=O)c1cc(-c2ccc(-c3ccccc3)cc2)nc2ccc(Br)cc12` [CBK261760], the “% of control remaining” value is recorded as 86.1816. As for `CCOc1cc(NC2CCN(C(=O)OC(C)(C)C)CC2)ncn1` [CBK306288], the “% of control remaining” value worked out at 46.679. `CCCc1cc(C(N)=O)c(NC(=O)c2cc(-c3ccc(C)o3)nc3ccccc23)s1` [CBK267766C]: the “% of control remaining” value came out at 74.0951.
